Test results as given in PubChem BioAssay (NCI).
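Compound exposure: 48 hours, 5 concentrations, 96-well plates. Abbreviation: GI50, concentration required for 50% inhibition of growth. Definition used: TGI = concentration required for complete inhibition of growth.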

Test system: NCI-H322M lung
Assay: NCI tumour cell line growth inhibition, 48 h

Q: How did the TGI turn out when `CCOC(=O)c1c(N2CCOCC2)[nH]c(=O)c(C(c2c(O)c(C(=O)OCC)c(N3CCOCC3)[nH]c2=O)C(C)C)c1O` was run?
A: > 100 µM

Q: With `COc1c(Nc2ncc(Cl)c(N[C@@H]3[C@H]4C=CC(C4)[C@@H]3C(N)=O)n2)ccc2c1CC[C@@H](N1CCOCC1)CC2` as the compound, how does the GI50 read?
A: 4.48 µM

Q: And the TGI?
A: 39 µM

Q: Which GI50 does the source give for `COc1ccc(Nc2nc(NCc3ccccc3)c3ccccc3n2)cc1` here?
A: 12.4 µM

Q: What about the TGI of the same compound?
A: 25.1 µM

Q: With `Cc1cc2c(cc1C)C(=O)c1ncccc1C2=O` as the compound, how does the TGI read?
A: > 100 µM

Q: `COc1ccc(-c2cn3c(nc4ccccc43)c(C)n2)cc1` was tested. Which TGI did it give?
A: > 100 µM

Q: `CC(=O)OCC1OC(O[C@@H]2C[C@H]3C(C)(C)[C@H](OC(C)=O)CC[C@]3(C)[C@H]3CC[C@@]45C[C@H](O)C[C@H](C)[C@@H]4CC=C5[C@@]32C)C(O)C(O)C1O` (stereo not given in full) was tested. Which TGI did it give?
A: 21.1 µM

Q: For `C[C@H]1O[C@@H](O[C@H]2[C@@H](O)C[C@H](O[C@H]3[C@@H](O)C[C@H](O[C@H]4CC[C@]5(C)C6C[C@@H](O)[C@]7(C)[C@@H](C8=CC(=O)OC8)CC[C@]7(O)C6CC[C@@H]5C4)O[C@@H]3C)O[C@@H]2C)C[C@H](O)[C@@H]1O` (stereo not given in full), which GI50 is on record?
A: 0.0757 µM

Q: What about the TGI of the same compound?
A: 0.393 µM

Q: Which TGI does the source give for `N#CC(NC12CC3CC(CC(C3)C1)C2)c1ccccc1` (stereo not given) here?
A: > 100 µM

Q: What does the source list for `Cc1ccccc1NC(=O)N/C(N)=N/c1nc2ccccc2s1`?
A: GI50: 0.279 µM; TGI: > 100 µM

Q: With `CCOC(=O)C(C)OC(=O)c1ccc(C)cc1` (stereo not given) as the compound, how does the TGI read?
A: > 100 µM

Q: Which TGI does the source give for `CC1=C(C)C(=O)c2c(cc3c4ccccc4ccn23)C1=O` here?
A: > 100 µM

Q: With `COC(=O)C1=C2C3=C(C(=O)c4ccccc4C3=O)N(Cc3ccccc3)C2(OC(C)=O)C=CC1=O` (stereo not given) as the compound, how does the GI50 read?
A: 9.9 µM

Q: And the TGI?
A: 36.6 µM

Q: With `O=[N+]([O-])c1nccn1CCCN=c1c2ccccc2n(O)c2ccccc12` as the compound, how does the TGI read?
A: > 100 µM

Q: How did the GI50 turn out when `Cc1cc(N2CCOCC2)nc(N(CCNc2ccnc3cc(Cl)ccc23)Cc2ccco2)n1` was run?
A: 3.31 µM

Q: What about the TGI of the same compound?
A: 14.4 µM

Q: What does the source list for `COc1cccc(C2=NN(C(C)=O)C(c3cc(OC)c(OC)c(OC)c3)C2)c1` (stereo not given)?
A: GI50: 4.44 µM; TGI: > 100 µM

Q: With `Cc1ccc(NC(=O)C2C(=O)C(=O)N(c3ccc(C)cc3)C2=O)cc1` (stereo not given) as the compound, how does the TGI read?
A: > 100 µM

Q: What does the source list for `CCc1ccc(/C(C#N)=C/C=C/c2ccccc2)cc1`?
A: GI50: 27.6 µM; TGI: > 100 µM

Q: With `O=C(CN1CCOCC1)c1ccc2[nH]c(=O)oc2c1` as the compound, how does the TGI read?
A: > 100 µM

Q: For `CC(C)=CCC/C(C)=C/CC/C(C)=C/[C@@H]1[C@@H](CO)[C@]1(C)CC/C=C(\C)CCC=C(C)C`, which TGI is on record?
A: > 100 µM

Q: With `Nc1cccc(-c2nc3sccn3c2-c2ccnc(NCCCNS(=O)(=O)c3ccc(C(F)(F)F)cc3)n2)c1` as the compound, how does the GI50 read?
A: 7.63 µM

Q: And the TGI?
A: 56.4 µM

Q: `NC(N)=NS(=O)(=O)c1ccc(Nc2c3ccccc3nc3c(C(=O)N4CCN(CCO)CC4)ccc(Cl)c23)cc1` was tested. Which TGI did it give?
A: > 100 µM

Q: `CN(C)c1ccc(/C=C2\C[C@H]3[C@@H]4CCC5=CC(=O)CC[C@]5(C)[C@H]4CC[C@]3(C)C2=O)cc1` was tested. Which TGI did it give?
A: > 100 µM

Q: `CNC(=O)c1cc(Oc2ccc3nc(NC(=O)c4cc(C(F)(F)F)cc(C(F)(F)F)c4)sc3c2)ccn1` was tested. Which GI50 did it give?
A: 3.7 µM

Q: What about the TGI of the same compound?
A: 19.8 µM

Q: `CC1C(=O)CCC1C(Sc1ccccc1)(Sc1ccccc1)Sc1ccccc1` (stereo not given) was tested. Which TGI did it give?
A: > 100 µM

Q: With `CN(C)C/C=C(/c1ccc(Br)cc1)c1cccnc1` as the compound, how does the TGI read?
A: > 100 µM
